Screen size: about 50,000 compounds; about 800 (1.6%) showed an effect of 50% or more. This is one part of the list.

The results in this text go back to PubChem BioAssay AID1240 (Sanford-Burnham Center for Chemical Genomics, 2008).

This test addresses Bcl-2-like protein 10 (Homo sapiens) (UniProt Q9HD36). The experiment in a line: Phenotype converters, Bcl-B/TR3 peptide binding displacement, primary biochemical FP (AID 1240).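 Further: 0% = Bcl-B with tracer peptide and DMSO and 100% = tracer peptide lacking Bcl-B.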 The settings on record: GST-Bcl-B / FITC-TR3 peptide fluorescence polarization; stronger effect = higher value; compound at 3.75 mg/L.
Sequence of UniProt Q9HD36 (Q9HD36 whole entry, looked up): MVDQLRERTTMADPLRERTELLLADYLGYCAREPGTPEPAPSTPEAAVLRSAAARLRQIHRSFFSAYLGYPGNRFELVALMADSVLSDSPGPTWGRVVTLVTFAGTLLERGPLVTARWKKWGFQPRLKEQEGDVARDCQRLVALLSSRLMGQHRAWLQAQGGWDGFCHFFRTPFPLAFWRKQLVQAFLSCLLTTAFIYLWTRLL
`Cc1cccc(OCC(=O)Nc2ccc(Cl)cc2Cl)c1`: the displacement is -4%.

In the case of `CC(C)(C)C(=O)Nc1oc(-c2ccccc2)c(-c2ccccc2)c1C#N`, the displacement was 2.6%.

For the molecule `CCOc1ccc(NC(=O)CC2S/C(=N\N=C(/C)c3ccc(F)cc3)NC2=O)cc1` (stereo unspecified), the displacement came to 2.4%.

For `O=C(c1ccco1)n1nnc2ccccc21`, the displacement turned out to be 18.4%.

As to `NC(N)=NS(=O)(=O)c1ccc(N/C=C2/CCCCC2=O)cc1`, the displacement was -3.5%.

In the case of `CCOc1ccccc1NC(=O)CN(Cc1ccccc1)S(=O)(=O)c1ccccc1`, the displacement is 7.3%.

For `CCSc1nc(N)c(C#N)c(-c2ccco2)c1C#N`, the displacement came out at 5.9%.

On to `CCOc1ccc(OCCSc2nc3ccccc3c(=O)[nH]2)cc1`, for which the displacement turned out to be 5.2%.

As to `CC(=O)NN1C(=O)/C(=C\c2ccc(O)c([N+](=O)[O-])c2)SC1=S`, the displacement was -64.7%.

For `COc1cc(NS(=O)(=O)c2ccc(N/C=C\C(=O)c3ccc(Br)cc3)cc2)nc(OC)n1`, the displacement was found to be 18.4%.

As to `COc1ccccc1C(=O)N/C(=C\c1ccc(Br)cc1)C(=O)N1CCCCC1`, the displacement is 7.8%.

On to `CCOc1ccc(C(C2=C(O)CC(C)(C)CC2=O)C2C(=O)CC(C)(C)CC2=O)cc1` (stereo unspecified), for which the displacement is -4.7%.

`Cc1cccc(N2C(=O)CC(Sc3ccccc3C(=O)O)C2=O)c1C` (stereo unspecified): the displacement is -2.7%.

For the molecule `COc1ccccc1Nc1nc(-c2cc3ccccc3oc2=O)cs1`, the displacement turned out to be 2%.

In the case of `O=C1NC(=O)N(c2ccccc2F)C(=O)/C1=C/c1ccc(O)c(Cl)c1`, the displacement is 10.2%.

With `O=C(NCC1OCCc2ccccc21)c1ccccc1Cl` (stereo unspecified), the displacement was -11.3%.

For `Fc1ccc(NC(=S)Nc2ccccc2Cl)cc1`, the displacement was 18%.

As to `C(=NN1CCN(Cc2ccccc2)CC1)c1cccnc1`, the displacement was -3.3%.

Take `Cc1ccc(C(=O)Nc2cc(Cl)cc(Cl)c2)o1`: the displacement is -3.8%.

For the molecule `CCOC(=O)c1ccc(N2C(=O)C3C4C=CC(C4=C(C)C)C3C2=O)cc1` (stereo unspecified), the displacement came out at 3%.

In the case of `CC(CNC(=O)c1ccc(F)c2ccccc12)c1ccccc1` (stereo unspecified), the displacement is -2.3%.

As for `COc1ccc(/C=C2\SC(N)=NC2=O)cc1`, the displacement is 124%.

On to `CC(C)c1ccccc1OCCCNC(C)(C)C`, for which the displacement is -2.9%.

`COc1ccc(C2CC(=O)C3=C(C2)Nc2ccccc2NC3c2ccccc2Cl)cc1` (stereo unspecified): the displacement was -6.1%.

On to `CCOC(=O)c1ccccc1NC(=O)CN(c1ccc(OC)cc1OC)S(C)(=O)=O`, for which the displacement was -1.7%.

For the molecule `O=C(Nc1ccccc1[N+](=O)[O-])c1cc2ccccc2o1`, the displacement came out at 12.4%.

Turning to `N/C(=N/c1nc2ccccc2o1)NC(=O)c1cccc(Br)c1`, the displacement was -2.4%.

`Cc1cc(Cl)ccc1NC(=O)CCC(=O)N/N=C/c1cccs1`: the displacement is 6.7%.

As for `Cc1ccnc(Nc2nc(-c3cccnc3)cs2)c1`, the displacement is 4.6%.

On to `N/C(=N\OC(=O)c1ccccc1[N+](=O)[O-])c1ccncc1`, for which the displacement came out at 2.8%.

`Cc1cc(Cl)ccc1NC(=O)COc1ccc2ccccc2c1`: the displacement is -3.9%.

With `Cc1cc([N+](=O)[O-])ccc1N1C(=O)c2ccc(C(=O)Nc3ccccc3C(=O)O)cc2C1=O`, the displacement was -17%.

Turning to `O=C(NN1CCOCC1)c1ccccc1Cl`, the displacement came to 7.7%.

For the molecule `COc1ccc(CNS(=O)(=O)c2ccc(Cl)cc2)cc1`, the displacement is 12.4%.

As to `O=c1c([N+](=O)[O-])c(N2CCN(c3ccccn3)CC2)c2ccccc2n1-c1ccccc1`, the displacement was -10.9%.

Consider `CCCC(=O)NC(c1ccc(Cl)cc1)c1c(OC(C)=O)ccc2ccccc12` (stereo unspecified), for which the displacement is -10.4%.

As to `CC(C)(C)OC(=O)COc1ccc2c3c(c(=O)oc2c1)CCC3`, the displacement amounted to 7.4%.

Take `C=CCNCc1cccn1-c1ccccc1`: the displacement was -8.5%.

On to `O=C1CCCC2=C1C(c1ccc(OCc3ccccc3)cc1)C1=C(CCCC1=O)O2`, for which the displacement turned out to be 13.6%.

Take `O=[N+]([O-])c1ccc(-c2noc(-c3cccc(Br)c3)n2)cc1`: the displacement is -10.1%.

For the molecule `CCOC(=O)c1ccccc1NC(=O)/C(=C/c1cccc([N+](=O)[O-])c1)NC(=O)c1ccccc1`, the displacement turned out to be 1.7%.

Regarding `COc1ccccc1C1=NN(C(=O)CCC(=O)O)C(c2ccc(Br)cc2)C1` (stereo unspecified), the displacement turned out to be 11.1%.

Consider `CCOC(=O)c1c(-c2ccc(-c3ccccc3)cc2)csc1NC(=O)C(C)C`, for which the displacement was -20.8%.

Take `CC1(C)Cc2ccccc2C(Nc2ccc(S(N)(=O)=O)cc2)=N1`: the displacement was determined as 0.8%.

Consider `CC(=O)NC1=NC(=O)/C(=C\c2ccc(-c3ccc([N+](=O)[O-])cc3)o2)S1`, for which the displacement was -26.1%.

As to `CC(=O)N=C1SC2CS(=O)(=O)CC2N1c1c(Cl)cccc1Cl` (stereo unspecified), the displacement is -5.6%.

Take `CC(=O)c1ccc(-c2ccc(C(C)=O)cc2)cc1`: the displacement amounted to 16.9%.

On to `O=C(NCCO)/C(=C\c1cccs1)NC(=O)c1ccccc1`, for which the displacement was -11.4%.

As to `O=C(Nc1ccccc1Br)C1CN(S(=O)(=O)c2ccccc2)CCN1S(=O)(=O)c1ccccc1` (stereo unspecified), the displacement came out at 4.9%.

On to `Cc1cc(Cl)ccc1NC(=O)c1cccc([N+](=O)[O-])c1`, for which the displacement was -0.2%.

As to `CC(C)(C)c1ccc(C(=O)NCCOc2ccccc2Cl)cc1`, the displacement is -9.6%.

For `CCCOC(=O)C1=C(C)NC2(O)c3ccccc3C(=O)C12O` (stereo unspecified), the displacement was 7.8%.

For `Cc1c(C(=O)N2CCN(c3ccc([N+](=O)[O-])cc3)CC2)oc2ccccc12`, the displacement was 16.1%.

Take `CCCN1CCN(C(=O)C2COc3ccccc3O2)CC1` (stereo unspecified): the displacement turned out to be 6.3%.

Turning to `CC1(C)Cc2c(sc3ncn4nc(CO/N=C/c5ccccc5Cl)nc4c23)C(C)(C)N1`, the displacement is -20.4%.

Take `CCc1cccc(C)c1NC(=O)COc1ccc(C)cc1C`: the displacement turned out to be 5%.

Regarding `CC(C)/C(=N\NS(=O)(=O)c1ccc(Br)cc1)c1cccs1`, the displacement was -4.5%.

For the molecule `CCOC(=O)c1ccc(N2NC(=O)/C(=C/c3cc(OC)c(OC)cc3Br)C2=O)cc1`, the displacement was 1.9%.

Consider `NNC(=O)c1ccccc1-n1cccc1`, for which the displacement was 3.6%.

As for `C=CCN1C(=O)/C(=C\c2ccc(OC(=O)c3ccc([N+](=O)[O-])cc3)c(OC)c2)SC1=S`, the displacement was 13.6%.

Consider `Cc1cc([N+](=O)[O-])ccc1NC(=O)c1ccccc1C(=O)O`, for which the displacement was 3.4%.

With `O=C1C=CC(=O)c2c1c(-c1ccccc1)nn2-c1ccccc1`, the displacement was -7.4%.

For the molecule `Cc1ccc(OCC(=O)Nc2cccc(O)c2)cc1C`, the displacement was -6.7%.

For `O=C1CS/C(=N/N=C/c2ccc(-c3ccc(Cl)cc3)o2)N1`, the displacement was -6.7%.

On to `CCOC(=O)C1=C(C)NC(C)=C(C(=O)OCC)C1c1cccs1`, for which the displacement is -5.1%.

Turning to `Cc1cc(=O)oc2cc(OCC(=O)C(C)(C)C)ccc12`, the displacement was determined as 8.3%.

Regarding `COc1ccc(-c2nnc(-c3ccc4c(c3)OCO4)o2)cc1OC`, the displacement was 12.7%.

In the case of `Clc1ccccc1CN1CCN(N=Cc2ccccc2Br)CC1`, the displacement is -8%.

Turning to `Cc1ccc(C)c(NC(=O)c2c(-c3ccccc3Cl)noc2C)c1`, the displacement was 9.9%.

`O=C1CCCC2=C1C(c1ccc(Cl)c(Cl)c1)Nc1ccccc1N2` (stereo unspecified): the displacement was -2.1%.

On to `O=C(Nc1ccc(Cl)c([N+](=O)[O-])c1)C(c1ccccc1)c1ccccc1`, for which the displacement was 7%.
